# Measurements taken from PubChem BioAssay AID686979 (National Center for Advancing Translational Sciences (NCATS), 2013).
# Values joined by “and” are separate entries in the source; they are usually repeats but may differ in a detail not shown here. Identical values can stand only once. Among all 420,000 compounds or so, about 50,000 (12%) were called active. The inconclusive results got no clear call from the source; some entries with a clear call stand among them for comparison. Calls come from the whole dose curve; as a rule, active = well fitted inhibition curve with a large enough effect; inconclusive = small, poorly fitted or top-dose-only effect; inactive = flat fitted curve, though single readings scatter. No potency is given beside an inconclusive call; the fits are too rough.
# Test: qHTS for Inhibitors of human tyrosyl-DNA phosphodiesterase 1 (TDP1): qHTS in cells in presence of CPT; note: nearly all actives have a fitted effect of over 55% in size
# Conditions: chicken DT40 Tdp1-/-;hTDP1 cells + 20 nM CPT, ATP luminescence, 48 h; series mostly up to 46.2 µM
# In short: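 Chicken DT40 Tdp1-/- cells complemented with human TDP1, 400 cells/well, exposed to compounds plus 20 nM camptothecin for at least 48 h at 37 C; viability read as ATP content by CellTiter-Glo luminescence.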
# Potency is the fitted concentration of half-maximal effect; tags give direction and shape of the fitted curve.
row,SMILES,Potency
1,CSCCC(NC(=O)c1ccccc1)C(=O)NCCCn1nc(C)cc1C (stereo unspecified),inactive
2,COc1ccc(C(=O)ON=C2CCN(C)CC2)cc1,inactive
3,CCc1nc2c(OCc3ccc(F)c(F)c3)cccn2c1N(C)C(=O)c1ccco1,"inconclusive [inhibitor, single point]"
4,Cc1cc(F)ccc1C(O)c1ncc(-c2cccc3ccccc23)[nH]1 (stereo unspecified),"inconclusive [inhibitor, single point]"
5,CC1=CC(=C(C#N)c2nc3ccccc3s2)C=C(C)N1CC1CCCO1 (stereo unspecified),"inconclusive [inhibitor, single point]"
6,CCCCN1C2=NC(c3ccccc3)CN2c2ccccc21 (stereo unspecified),"inconclusive [inhibitor, partial curve]"
7,COc1cccc(C(=O)N2N=C(c3ccccn3)CC2(O)C(F)(F)F)c1 (stereo unspecified),active: 20.6 µM
8,O=S(=O)(c1cnc[nH]1)N1CCN(c2ccc(Cl)cc2)CC1,inactive
9,COc1ccc(S(=O)(=O)N2Cc3ccccc3CC2C(=O)Nc2nccs2)cc1 (stereo unspecified),"inconclusive [inhibitor, single point]"
10,Cc1ccc(CN=c2c([N+](=O)[O-])nn(-c3cccc(C)c3)n2O)cc1,"inconclusive [inhibitor, single point]"
11,OC(CN1CCN(Cc2ccc3c(c2)OCO3)CC1)c1c[nH]c2ccccc12 (stereo unspecified),active: 11.6 µM
12,O=[N+]([O-])c1cc([N+](=O)[O-])c2oc(-c3ccccc3)c(Br)c2c1O,"inconclusive [inhibitor, single point]"
13,O=[N+]([O-])c1ccc(S(=O)(=O)N2CCC3(CC2)OCCN3S(=O)(=O)c2cccs2)cc1,"inconclusive [inhibitor, single point]"
14,CCN(Cc1cnn(C)c1)C(=O)CC1C(=O)NCCN1Cc1cccc(OC)c1OC (stereo unspecified),inactive
15,CCOC(=O)N1CCC(NC(=O)c2cc(C(=O)Nc3cccc(C(F)(F)F)c3)ccc2CO)CC1,active: 5.17 µM
16,Cc1ccc(-c2nc3ccc([N+](=O)[O-])cc3[nH]2)cc1,"inconclusive [inhibitor, single point]"
17,COc1cc(OC)cc(C(=O)OC(C)C(=O)NC2CCCc3ccccc32)c1 (stereo unspecified),inactive
18,COc1ccc(CCNC(=O)CN(c2ccc(C)cc2)S(=O)(=O)c2ccc(OC)cc2)cc1,"inconclusive [inhibitor, single point]"
19,O=C(c1cccc(S(=O)(=O)N2CCCCC2)c1)N1CCN(c2ccccc2)CC1,"inconclusive [inhibitor, partial curve]"
20,COc1ccc(N2CCN(CCCNC(=O)Nc3ccccc3Cl)CC2)cc1,"inconclusive [inhibitor, partial curve]"
21,C[C@H]1CN([C@@H](C)CO)C(=O)CCCn2nncc2CO[C@@H]1CN(C)S(=O)(=O)c1ccc(Oc2ccccc2)nc1,inactive
22,CCOc1ccc(-c2nc3c(c(SCC(=O)N4CCCCC4)n2)Cc2cc(C)ccc2O3)cc1,"inconclusive [inhibitor, single point]"
23,Cc1noc(/C=C/N(C)C)c1S(=O)(=O)N1CCCC(C(=O)N2CCCCC2)C1 (stereo unspecified),"inconclusive [inhibitor, single point]"
24,COc1cc2c(cc1OC)C1=NC(=O)CN1C(SCc1ccc(C)cc1)=N2,active: 6.51 µM

row,SMILES,Potency
1,CCOc1ccc(C2=C(C=C(C#N)C#N)C(c3ccccc3)c3ccccc3O2)cc1 (stereo unspecified),"inconclusive [inhibitor, single point]"
2,O=C(NCCS(=O)(=O)N1CCN(c2ccccc2)CC1)c1ccc(Br)o1,inactive
3,Cc1ccc(C)c(Cn2c3ccccc3c3cnn(CC(=O)NCCCN4CCOCC4)c(=O)c32)c1,"inconclusive [inhibitor, partial curve, poor fit]"
4,Cc1ccc(S(=O)(=O)N2CCN(C(=O)C3CSC4(C)CCC(=O)N34)CC2)cc1C (stereo unspecified),inactive
5,CCCCCCc1cc2cc(/C(N)=N/NC(=O)c3ccncc3)c(=O)oc2cc1O,"inconclusive [inhibitor, single point]"
6,Cc1nn(C)cc1/C=C/C(=O)c1ccccc1,inactive
7,CN(C)CC(=O)c1c(N)n(Cc2ccccc2)c(=O)n(C)c1=O,inactive
8,CCOC(=O)C(CC)Sc1nc2c(cnn2-c2ccccc2)c(=O)[nH]1 (stereo unspecified),"inconclusive [inhibitor, single point]"
9,COc1ccc(CN2C(=O)C(CC(=O)NC3CCCCC3)CC(C(=O)N(C(C)C)C(C)C)=C2C)cc1 (stereo unspecified),"inconclusive [inhibitor, single point]"
10,Clc1ccccc1NCSC1=NCCS1,inactive
11,CCC(Sc1nc2cc(OC)c(OC)cc2c(=O)n1Cc1ccc(Cl)cc1)C(=O)NCCOC (stereo unspecified),inactive
12,CCOC(=O)Nc1cc(C(=O)OC)cc(C(=O)OC)c1,inactive
13,COC(=O)[C@H](Cc1ccc(O)cc1)NCCCn1cnc(C(=O)Nc2ccc(C)c(C)c2)n1,"inconclusive [inhibitor, single point]"
14,CCC(CC)C(=O)Nc1c(C(=O)N2CCN(c3ccccc3F)CC2)oc2ccccc12,active: 14.6 µM
15,NC(=O)c1ccccc1NC(=O)Nc1cccc(Cl)c1,active: 11.6 µM
16,Cc1ccc(CN(C(=O)c2cc(=O)c3cc(Cl)c(C)cc3o2)C2CCS(=O)(=O)C2)cc1 (stereo unspecified),inactive
17,Cc1[nH]c2ccccc2c1C(=O)/C=C/c1ccccc1Cl,inactive
18,CCOC(=O)CSc1nc2sc3c(c2c(=O)n1-c1ccc(C)cc1)CCN(C)C3,"inconclusive [inhibitor, single point]"
19,CCN(CC)CCCN(Cc1cc2cc(OC)c(OC)cc2[nH]c1=O)C(=O)Nc1ccccc1,"inconclusive [inhibitor, single point]"
20,CCc1c(C(=O)N2CCCN(C)CC2)csc1C,inactive
21,O=C(CN1C(=O)c2ccccc2S1(=O)=O)Nc1ccc(S(=O)(=O)N2CCCCC2)cc1,"inconclusive [inhibitor, single point]"
22,CCCCc1nc2ccccc2c(NC(=O)CNC(C)(C)C)c1CCC,"inconclusive [inhibitor, single point]"
23,O=C(NC1CC(=O)N(c2ccccc2)C1)c1ccc(S(=O)(=O)N2CCOCC2)cc1 (stereo unspecified),inactive
24,Brc1ccc(-c2ccc(CNCCSc3nnnn3-c3ccccc3)o2)cc1,"inconclusive [inhibitor, single point]"

row,SMILES,Potency
1,Cc1ccc(S(=O)(=O)N(C)C)cc1NC(=O)CSc1nnnn1-c1ccc(O)cc1,"inconclusive [inhibitor, single point]"
2,O=C(CCCN1C(=O)/C(=C\c2ccccc2)SC1=S)Nc1ccc(O)cc1C(=O)O,inactive
3,Cc1ccc(CNc2ncnc(N)c2[N+](=O)[O-])cc1,inactive
4,CCCCOC(=O)N1CCOCCOCCN(C(=O)OCCCC)CCOCCOCC1,"inconclusive [inhibitor, single point]"
5,CC1(OC(=O)CCc2ccccc2)C(=O)C=C2C=C(c3ccc(C#N)cc3)N(C3CCCCC3)C=C2C1=O (stereo unspecified),active: 25.9 µM
6,COc1ccccc1CCn1cnc(Cc2cccc(F)c2)c1C(C)C,"inconclusive [inhibitor, single point]"
7,CCc1ccc(/C=C(\Cl)c2nc3cc(Cl)ccc3c(=O)[nH]2)cc1,"inconclusive [inhibitor, single point]"
8,CCOc1ccc(CCN2C(=O)C(=O)N([C@@H](CC(C)C)CN3CCC[C@@H]3CN3C(=O)C(=O)NC[C@@H]3CC(C)C)C[C@@H]2Cc2ccccc2)cc1,"inconclusive [inhibitor, single point]"
9,COC(=O)C1=CN(c2ccc3c(c2)OCO3)C(N)=C(C#N)C1c1ccccc1 (stereo unspecified),active: 5.17 µM
10,Cc1cccc(C)c1NC(=O)c1nc(S(=O)(=O)Cc2ccccc2)ncc1Cl,active: 2.59 µM
11,COc1ccccc1N1CCN(c2ccc3cc(S(=O)(=O)N4CCCCC4)ccc3n2)CC1,active: 16.4 µM and active: 13 µM
12,O=C(CN1C(=O)COc2ccc(Cl)cc21)Nc1nccs1,inactive
13,O=C(NC1CCCC1)C(c1ccsc1)N(Cc1ccco1)C(=O)Cc1cccs1 (stereo unspecified),"inconclusive [inhibitor, single point]"
14,COc1cc(NC(=S)NC(=O)c2cccs2)ccc1NC(=O)C(C)C,"inconclusive [inhibitor, single point]"
15,COc1ccc2cc(C(=O)c3ccccc3)c(=O)oc2c1,inactive
16,CCCCc1n[nH]c(=S)n1Cc1ccccc1,inactive
17,COc1ccc(S(=O)(=O)N(CC(=O)Nc2cc(C)on2)Cc2ccccc2)cc1,"inconclusive [inhibitor, single point]"
18,COc1ccc(OC)c(NC(=O)CSc2n[nH]c(-c3ccccc3Cl)n2)c1,active: 10.3 µM
19,O=C1NC[C@@H](CCCCN2CCN(Cc3ccccc3)C(=O)C2=O)N(CC2CCCCC2)C1=O,inactive
20,CC(C)OC(=O)c1cc2c(ccn2C)n1CC(=O)N(Cc1ccccc1)c1ccccc1,"inconclusive [inhibitor, single point]"
21,c1ccc(-c2cn(-c3ccccc3)c3ncnc(N4CCN(c5ccccc5)CC4)c23)cc1,"inconclusive [inhibitor, partial curve]"
22,Cc1cccc(C)c1OCC(=O)Nc1oc(-c2ccccc2)c(-c2ccccc2)c1C#N,"inconclusive [inhibitor, single point]"
23,c1ccc(-c2oc3ncnc(NCCCn4ccnc4)c3c2-c2ccccc2)cc1,active: 23.1 µM
